{"source": "paper doi:10.1101/2024.03.18.585568", "about": "(bioRxiv, 2024)", "proteins": {"B1": {"name": "apoGAD65 (glutamate decarboxylase GAD65, […], purified without added PLP) (enzyme)", "chain": "not shown"}}, "target": "the molecule itself", "assay": "cryo-EM structure"}
{"protein": "B1", "values": [{"measurement": "stoichiometry N", "result": 2}]}
